This note sets out measurements from article PMC2684588.

Amino acid sequences for entries named in this document (tags omitted).
UniProt Q9C035: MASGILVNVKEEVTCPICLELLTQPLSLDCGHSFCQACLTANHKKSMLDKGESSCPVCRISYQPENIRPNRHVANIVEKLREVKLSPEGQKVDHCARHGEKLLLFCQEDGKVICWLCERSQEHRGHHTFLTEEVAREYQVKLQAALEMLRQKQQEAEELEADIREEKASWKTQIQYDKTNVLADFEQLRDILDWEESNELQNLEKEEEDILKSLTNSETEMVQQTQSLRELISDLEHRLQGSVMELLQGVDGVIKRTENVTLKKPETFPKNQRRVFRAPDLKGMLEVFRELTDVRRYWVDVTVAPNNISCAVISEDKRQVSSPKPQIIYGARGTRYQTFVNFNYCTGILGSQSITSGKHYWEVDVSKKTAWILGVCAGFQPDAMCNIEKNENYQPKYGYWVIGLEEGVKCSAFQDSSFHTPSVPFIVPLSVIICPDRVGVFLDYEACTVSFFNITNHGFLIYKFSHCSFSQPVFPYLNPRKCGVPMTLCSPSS
UniProt Q14258: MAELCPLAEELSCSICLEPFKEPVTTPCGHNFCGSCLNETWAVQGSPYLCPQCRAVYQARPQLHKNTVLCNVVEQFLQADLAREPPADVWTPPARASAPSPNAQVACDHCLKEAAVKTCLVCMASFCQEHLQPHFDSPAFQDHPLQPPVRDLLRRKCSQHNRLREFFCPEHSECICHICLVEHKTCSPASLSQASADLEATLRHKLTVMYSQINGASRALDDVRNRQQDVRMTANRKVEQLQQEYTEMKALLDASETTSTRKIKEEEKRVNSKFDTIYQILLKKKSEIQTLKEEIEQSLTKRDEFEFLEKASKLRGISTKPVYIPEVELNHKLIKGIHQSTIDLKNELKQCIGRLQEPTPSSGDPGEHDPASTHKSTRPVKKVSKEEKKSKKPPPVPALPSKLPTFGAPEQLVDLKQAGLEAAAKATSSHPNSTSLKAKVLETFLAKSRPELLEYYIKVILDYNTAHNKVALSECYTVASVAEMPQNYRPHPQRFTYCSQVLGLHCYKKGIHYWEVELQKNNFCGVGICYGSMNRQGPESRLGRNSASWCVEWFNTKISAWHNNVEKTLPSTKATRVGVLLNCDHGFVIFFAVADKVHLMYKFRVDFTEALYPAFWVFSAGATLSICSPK

The target in experiment [1] is T1, HA-tagged full-length RIG-I (UniProt O95786).
T1 sequence: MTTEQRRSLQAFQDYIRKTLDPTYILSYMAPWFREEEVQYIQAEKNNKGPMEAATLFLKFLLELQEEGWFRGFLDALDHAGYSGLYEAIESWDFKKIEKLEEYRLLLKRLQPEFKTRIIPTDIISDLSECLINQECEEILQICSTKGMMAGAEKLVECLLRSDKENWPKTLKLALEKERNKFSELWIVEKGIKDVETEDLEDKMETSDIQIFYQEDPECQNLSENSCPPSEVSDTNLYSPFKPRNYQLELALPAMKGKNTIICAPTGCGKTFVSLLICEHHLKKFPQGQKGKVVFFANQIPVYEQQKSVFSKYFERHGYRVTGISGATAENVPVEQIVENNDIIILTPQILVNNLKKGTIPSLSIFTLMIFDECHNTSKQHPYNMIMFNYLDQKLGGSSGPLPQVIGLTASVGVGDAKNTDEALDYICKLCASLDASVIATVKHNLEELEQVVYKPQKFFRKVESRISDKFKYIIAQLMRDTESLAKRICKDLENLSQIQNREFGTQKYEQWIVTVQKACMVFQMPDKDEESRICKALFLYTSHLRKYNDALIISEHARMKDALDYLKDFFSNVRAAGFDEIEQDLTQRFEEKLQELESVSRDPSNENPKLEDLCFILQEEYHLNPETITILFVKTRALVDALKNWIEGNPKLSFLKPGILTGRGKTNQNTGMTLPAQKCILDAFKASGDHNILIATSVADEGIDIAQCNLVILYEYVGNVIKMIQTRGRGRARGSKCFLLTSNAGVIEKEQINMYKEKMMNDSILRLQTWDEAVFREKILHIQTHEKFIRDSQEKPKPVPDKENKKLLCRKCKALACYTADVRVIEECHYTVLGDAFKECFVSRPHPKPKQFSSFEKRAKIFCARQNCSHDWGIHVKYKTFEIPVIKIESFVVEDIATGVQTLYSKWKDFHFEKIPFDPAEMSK
Nature of the experiment: co-IP; HEK293/HEK293T cells co-transfected with Flag- and HA-tagged plasmids; lysis buffer 20 mM Tris pH 7.5, 150 mM NaCl, 1% Triton X-100, 1 mM EDTA; IP with anti-Flag, anti-HA or mouse IgG and protein-A sepharose for 2 h; Western blot.

Experiment [2] concerns the target T2, RIG-I (retinoic-acid-inducible gene-I), full-length, yeast two-hybrid bait (UniProt O95786).
T2 sequence: T1 sequence
In words: two-hybrid; yeast two-hybrid screen of a human fetal kidney cDNA library (Clontech) with full-length RIG-I as bait; β-galactosidase-positive clones.

For a further experiment, the target named is Flag-tagged TRIM5-α (UniProt Q9C035). Nature of the experiment: co-IP; HEK293/HEK293T cells co-transfected with Flag- and HA-tagged plasmids; lysis buffer 20 mM Tris pH 7.5, 150 mM NaCl, 1% Triton X-100, 1 mM EDTA; IP with anti-Flag, anti-HA or mouse IgG and protein-A sepharose for 2 h; Western blot.
For experiment [3], the target named is Flag-tagged TRIM25 (tripartite motif 25) (UniProt Q14258). The experiment is described as above.
The target in experiment [4] is T3, Flag-tagged full-length REUL (human) (UniProt Q8IUD6).
T3 sequence: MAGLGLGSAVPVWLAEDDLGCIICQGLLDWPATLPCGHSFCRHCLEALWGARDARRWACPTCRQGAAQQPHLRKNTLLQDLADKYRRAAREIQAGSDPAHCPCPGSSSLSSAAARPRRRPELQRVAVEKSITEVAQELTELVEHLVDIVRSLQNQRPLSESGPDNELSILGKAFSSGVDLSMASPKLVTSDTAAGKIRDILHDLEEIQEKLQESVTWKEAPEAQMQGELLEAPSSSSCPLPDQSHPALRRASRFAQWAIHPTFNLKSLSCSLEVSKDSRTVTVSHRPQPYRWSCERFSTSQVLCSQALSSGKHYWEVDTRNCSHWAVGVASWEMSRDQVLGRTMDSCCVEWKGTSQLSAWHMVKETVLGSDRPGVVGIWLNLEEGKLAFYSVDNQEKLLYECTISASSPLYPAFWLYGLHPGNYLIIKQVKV
Described as above.

Results are given in words; binding and its absence hold for the method and conditions named. For some assays here: In cells and extracts the contact can be indirect. Some binding calls cover weakened binding; strength is not graded here. For some assays here: Where a sequence is shown, tags or fusion partners need not be part of it.

B1: Flag-REUL deletion mutant 215-432 (PRY and SPRY domains) (domain or fragment, UniProt Q8IUD6-1 215-432)
chain: VTWKEAPEAQMQGELLEAPSSSSCPLPDQSHPALRRASRFAQWAIHPTFNLKSLSCSLEVSKDSRTVTVSHRPQPYRWSCERFSTSQVLCSQALSSGKHYWEVDTRNCSHWAVGVASWEMSRDQVLGRTMDSCCVEWKGTSQLSAWHMVKETVLGSDRPGVVGIWLNLEEGKLAFYSVDNQEKLLYECTISASSPLYPAFWLYGLHPGNYLIIKQVKV
For B1, the binding entry in experiment [1] is recorded as “binds”.

B2: REUL (RNF135) C-terminal region Aa 125-432, yeast two-hybrid library clone (domain or fragment, UniProt Q8IUD6-1 125-432)
chain: VAVEKSITEVAQELTELVEHLVDIVRSLQNQRPLSESGPDNELSILGKAFSSGVDLSMASPKLVTSDTAAGKIRDILHDLEEIQEKLQESVTWKEAPEAQMQGELLEAPSSSSCPLPDQSHPALRRASRFAQWAIHPTFNLKSLSCSLEVSKDSRTVTVSHRPQPYRWSCERFSTSQVLCSQALSSGKHYWEVDTRNCSHWAVGVASWEMSRDQVLGRTMDSCCVEWKGTSQLSAWHMVKETVLGSDRPGVVGIWLNLEEGKLAFYSVDNQEKLLYECTISASSPLYPAFWLYGLHPGNYLIIKQVKV
In the case of B2, in experiment [2], the binding entry is on record as “binds”.

B3: Flag-tagged full-length REUL (protein, UniProt Q8IUD6-1 1-432)
chain: T3 sequence
B3: the binding entry in experiment [1] was “binds”.

B4: HA-tagged full-length RIG-I (protein, UniProt O95786 1-925)
chain: T1 sequence
For B4, in the experiment with Flag-tagged TRIM5-α, the binding entry is recorded as “no binding”.

B5: Flag-REUL mutant carrying the RING-finger and the middle region (1-214) (domain or fragment, UniProt Q8IUD6-1 1-214)
chain: MAGLGLGSAVPVWLAEDDLGCIICQGLLDWPATLPCGHSFCRHCLEALWGARDARRWACPTCRQGAAQQPHLRKNTLLQDLADKYRRAAREIQAGSDPAHCPCPGSSSLSSAAARPRRRPELQRVAVEKSITEVAQELTELVEHLVDIVRSLQNQRPLSESGPDNELSILGKAFSSGVDLSMASPKLVTSDTAAGKIRDILHDLEEIQEKLQES
Regarding B5, the binding entry in experiment [1] is reported as “no binding”.

B6: HA-RIG-I mutant carrying the DexD/H-box helicase domain (219-925), RIG-IΔCARD (domain or fragment, UniProt O95786 219-925)
chain: CQNLSENSCPPSEVSDTNLYSPFKPRNYQLELALPAMKGKNTIICAPTGCGKTFVSLLICEHHLKKFPQGQKGKVVFFANQIPVYEQQKSVFSKYFERHGYRVTGISGATAENVPVEQIVENNDIIILTPQILVNNLKKGTIPSLSIFTLMIFDECHNTSKQHPYNMIMFNYLDQKLGGSSGPLPQVIGLTASVGVGDAKNTDEALDYICKLCASLDASVIATVKHNLEELEQVVYKPQKFFRKVESRISDKFKYIIAQLMRDTESLAKRICKDLENLSQIQNREFGTQKYEQWIVTVQKACMVFQMPDKDEESRICKALFLYTSHLRKYNDALIISEHARMKDALDYLKDFFSNVRAAGFDEIEQDLTQRFEEKLQELESVSRDPSNENPKLEDLCFILQEEYHLNPETITILFVKTRALVDALKNWIEGNPKLSFLKPGILTGRGKTNQNTGMTLPAQKCILDAFKASGDHNILIATSVADEGIDIAQCNLVILYEYVGNVIKMIQTRGRGRARGSKCFLLTSNAGVIEKEQINMYKEKMMNDSILRLQTWDEAVFREKILHIQTHEKFIRDSQEKPKPVPDKENKKLLCRKCKALACYTADVRVIEECHYTVLGDAFKECFVSRPHPKPKQFSSFEKRAKIFCARQNCSHDWGIHVKYKTFEIPVIKIESFVVEDIATGVQTLYSKWKDFHFEKIPFDPAEMSK
With B6, the binding result is reported as “binds” in experiment [3], “no binding” with Flag-tagged TRIM5-α and “binds” in experiment [4].

B7: Flag-REUL deletion mutant 91-432 (REULΔRING) (domain or fragment, UniProt Q8IUD6-1 91-432)
chain: EIQAGSDPAHCPCPGSSSLSSAAARPRRRPELQRVAVEKSITEVAQELTELVEHLVDIVRSLQNQRPLSESGPDNELSILGKAFSSGVDLSMASPKLVTSDTAAGKIRDILHDLEEIQEKLQESVTWKEAPEAQMQGELLEAPSSSSCPLPDQSHPALRRASRFAQWAIHPTFNLKSLSCSLEVSKDSRTVTVSHRPQPYRWSCERFSTSQVLCSQALSSGKHYWEVDTRNCSHWAVGVASWEMSRDQVLGRTMDSCCVEWKGTSQLSAWHMVKETVLGSDRPGVVGIWLNLEEGKLAFYSVDNQEKLLYECTISASSPLYPAFWLYGLHPGNYLIIKQVKV
In the case of B7, in experiment [1], the binding entry is recorded as “binds”.

B8: Flag-REUL RING-finger domain mutant (1-90) (domain or fragment, UniProt Q8IUD6-1 1-90)
chain: MAGLGLGSAVPVWLAEDDLGCIICQGLLDWPATLPCGHSFCRHCLEALWGARDARRWACPTCRQGAAQQPHLRKNTLLQDLADKYRRAAR
Take B8: the binding entry in experiment [1] was “no binding”.

B9: HA-RIG-I mutant carrying the N terminal CARD domain (1-218) (domain or fragment, UniProt O95786 1-218)
chain: MTTEQRRSLQAFQDYIRKTLDPTYILSYMAPWFREEEVQYIQAEKNNKGPMEAATLFLKFLLELQEEGWFRGFLDALDHAGYSGLYEAIESWDFKKIEKLEEYRLLLKRLQPEFKTRIIPTDIISDLSECLINQECEEILQICSTKGMMAGAEKLVECLLRSDKENWPKTLKLALEKERNKFSELWIVEKGIKDVETEDLEDKMETSDIQIFYQEDPE
With B9, the binding entry is given as “binds” in experiment [3], “no binding” with Flag-tagged TRIM5-α and “binds” in experiment [4].

B10: Flag-REUL middle region mutant (91-214) (domain or fragment, UniProt Q8IUD6-1 91-214)
chain: EIQAGSDPAHCPCPGSSSLSSAAARPRRRPELQRVAVEKSITEVAQELTELVEHLVDIVRSLQNQRPLSESGPDNELSILGKAFSSGVDLSMASPKLVTSDTAAGKIRDILHDLEEIQEKLQES
As to B10, in experiment [1], the binding entry is given as “no binding”.
